According to PubChem BioAssay AID1476 (National Center for Advancing Translational Sciences (NCATS), 2009):
Out of some 200,000 compounds screened, about 4,500 (2.2%) were called active. The inconclusive results got no clear call from the source; some entries with a clear call stand among them for comparison. The call rests on the fitted dose curve; in most records, active means well fitted inhibition curve with a large enough effect; inconclusive means small, poorly fitted or top-dose-only effect, or effect the other way; inactive means flat fitted curve, though single readings scatter. A potency beside an inconclusive call is a rough fit, not a confirmed value.

Target: Cruzipain (Trypanosoma cruzi) (UniProt P25779)
Sequence of UniProt P25779 (P25779 whole entry, looked up): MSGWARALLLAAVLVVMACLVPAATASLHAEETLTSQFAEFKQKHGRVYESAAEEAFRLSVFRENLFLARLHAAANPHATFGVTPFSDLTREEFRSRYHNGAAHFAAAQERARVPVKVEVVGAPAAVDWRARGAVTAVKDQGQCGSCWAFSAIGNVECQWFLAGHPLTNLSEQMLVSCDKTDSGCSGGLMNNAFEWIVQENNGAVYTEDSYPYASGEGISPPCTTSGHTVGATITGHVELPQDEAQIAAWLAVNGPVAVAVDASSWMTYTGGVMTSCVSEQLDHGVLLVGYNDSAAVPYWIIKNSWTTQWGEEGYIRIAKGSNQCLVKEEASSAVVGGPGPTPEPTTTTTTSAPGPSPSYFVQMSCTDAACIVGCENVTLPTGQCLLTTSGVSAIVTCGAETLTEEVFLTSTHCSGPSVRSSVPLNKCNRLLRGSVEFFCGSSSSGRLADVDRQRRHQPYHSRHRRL
Assay: qHTS Assay for Promiscuous and Specific Inhibitors of Cruzain (without detergent); further: nearly all actives have a fitted effect of over 40% in size
Conditions: purified cruzain, Z-FR-AMC fluorescence, no detergent
Protocol: Cruzain is a cysteine protease from the tropical parasite Trypanosoma cruzi. Dual qHTS experiment was performed against the NCGC compound collection in order to 1) identify novel inhibitors of the enzyme and 2) profile the compound collection for promiscuous inhibitors operating via colloidal aggregation (by performing detergent-free and detergent-containing comparison screens). Cruzain was assayed by the use of fluorogenic coumarin-based substrate Z-FR-AMC: proteolytic cleavage releases AMC, whose fluorescence is measured at 360 nm excitation and 450 nm emission. Purified cruzain was supplied by the labs of Prof. James McKerrow and Brian Shoichet, UC San Francisco.
This assay had 0.00005% Triton X-100 concentration. See also releated assay "qHTS Assay for Promiscuous and Specific Inhibitors of Cruzain (with detergent)" with 0.01% Triton X-100.
See following references for additional details:
Assay Provider: Shoichet, Brian; University of California, San Fancisco
Screening Center PI: Austin, C.P.
Screening Center: NIH Chemical Genomics Center [NCGC]
Buffer: 100 mM Sodium Acetate, pH 5.5, 5 mM DTT, Triton X-100 concentration: 0.01%.
Buffer in columns 3 and 4 as negative control (no enzyme).
Substrate solution: 2 uM final concentration of Z-FR-AMC (catalog number I-1160, Bachem) dispensed throughout the plate.
Enzyme: 1.5 nM Cruzain final concentration in columns 1, 2, 5-48. Column 1 is neutral (100% activity). Column 2 contained titration of covalent inhibitor K11777, starting concentration 1 mM, then 1:2 dilution in duplicate).
Three uL of enzyme or buffer were dispensed to 1536-well Greiner black solid bottom plates. Compounds and controls (23 nL) were transferred via Kalypsys PinTool. The plates were incubated for 15 min at room temperature, and then 1 uL of substrate solution was added to start the reaction. The plates were immediately transferred to and read 4 times every 30 seconds for 2 min on ViewLux High-throughput CCD imager (Perkin-Elmer) using 360 nm excitation and 450 nm emission fluorescence protocol. The fluorescence intensity difference between the third and the first time points (time lapse of 60 seconds) was used to compute reaction progress.
Potency means the concentration at half of the fitted maximal effect; tags describe the fitted curve by direction and shape.

Row | SMILES | max response, negative = inhibition | Potency
1 | O=C(NC(Cc1ccccc1)c1nc2ccccc2[nH]1)c1ccc(Cl)c([N+](=O)[O-])c1 (stereo unspecified) | inactive: -2.15% | 
2 | O=C(Cn1nc2c(cc1=O)CCCC2)Nc1ccccc1C(F)(F)F | inactive: 0.619% | 
3 | O=C(c1ccco1)[C@@H]1[C@@H]2C(=O)N(c3ccc(F)cc3)C(=O)[C@@H]2[C@H]2C=Cc3ccccc3N21 |  | active: 25.1 µM
4 | Cc1cccc(C(c2sc3nc(-c4ccco4)nn3c2O)N2CCN(c3ccccc3)CC2)c1 (stereo unspecified) | inactive: 8.74% | 
5 | CCCC(=O)Nc1ccc(Nc2ccccc2)cc1 | inactive: 13% | 
6 | COC(=O)/C(=C\c1c[nH]c2ccccc12)NC(C)=O | inactive: -2.58% | 
7 | Cn1cc(CNC(=O)c2sc3cccc(Cl)c3c2Cl)cn1 |  | inconclusive: 39.8 µM [activator, single point]
8 | CCn1cc(CNC(=O)c2cc(-c3ccc(C)c(C)c3)nc3ccccc23)c(C)n1 |  | inconclusive: 6.31 µM [activator, single point]
9 | C=CCCC(=O)Nc1nc(C)c(-c2csc(Nc3cccc(OC)c3)n2)s1 |  | active: 15.8 µM
10 | Cc1ccc(-n2c(=O)[nH]c3c(C(N)=O)nc(-c4ccc(C)o4)nc32)cc1 |  | inconclusive: 31.6 µM [activator, single point]
11 | CCOc1ccc(-n2c(=S)sc3c(=O)[nH]c(SCC(=O)N4CCC(C)CC4)nc32)cc1 | inconclusive: 53% [activator] | 
12 | CC(/C=N/NC(=O)Cn1nccc1C)=C\c1ccc(C(C)C)cc1 |  | inconclusive: 39.8 µM [activator, single point]
13 | Cc1ccc(NC(=O)c2ccc(NCCN)c([N+](=O)[O-])c2)cc1Cl |  | inconclusive: 31.6 µM [inhibitor, single point]
14 | Fc1ccc(Nc2ncncc2-c2ccoc2)cc1 | inactive: 0.876% | 
15 | COc1ccccc1CN(Cc1ccco1)c1cnc(S(C)(=O)=O)nc1C(=O)Nc1cc(C)ccc1C |  | inconclusive: 39.8 µM [inhibitor, single point]
16 | CCc1ccc(S(=O)(=O)NCCc2csc3nc(-c4ccccc4)nn23)s1 |  | inconclusive: 39.8 µM [activator, single point]
17 | Cn1c(=O)c2c(ncn2Cc2ccccc2)n(C)c1=O | inactive: -2.27% | 
18 | CC(=O)NC1C(OCCOc2ccc(Cl)cc2Cl)OC(COC(C)=O)C(OC(C)=O)C1OC(C)=O (stereo unspecified) |  | inconclusive: 39.8 µM [activator, single point]
19 | CCc1ccc(Oc2c(C(F)(F)F)oc3c(CN4CCN(C)CC4)c(O)ccc3c2=O)cc1 | inactive: 9.45% | 
20 | CC(C)c1ccccc1NC(=O)c1ccc(CN(c2ccccc2)S(=O)(=O)c2ccccc2)cc1 |  | inconclusive: 31.6 µM [inhibitor, single point]
21 | CCOc1ccccc1CNC(=O)c1cnc2sc(N3CCCCCC3)nn2c1=O |  | inconclusive: 20 µM [activator, single point]
22 | Cc1nc(SCC(O)CCl)c([N+](=O)[O-])[nH]1 (stereo unspecified) | inactive: 4.37% | 

Row | SMILES | max response, negative = inhibition | Potency
23 | CCOc1cccc(CC(=O)N2CCc3c([nH]c4ccccc34)C2c2ccc(Cl)cc2)c1OCC (stereo unspecified) |  | active: 20 µM
24 | CC(=O)N1CCN(c2ccc(NC(=O)COc3ccc(Cl)cc3Cl)cc2)CC1 |  | inconclusive: 31.6 µM [activator, single point]
25 | Cc1ccc2c(c1)c(N=NC(N)=S)c(O)n2Cc1ccccc1 |  | active: 2.51 µM
26 | COc1ccc(OC)c(NC(=O)CSc2nnc(-c3ccco3)n2-c2ccccc2)c1 | inactive: 9.95% | 
27 | C(=C\c1ccccc1)/CN1CCN(C(c2ccccc2)c2ccccc2)CC1 |  | inconclusive: 39.8 µM [inhibitor, single point]
28 | Cn1c(=O)[nH]c(=O)c2[nH]cnc21 | inactive: 5.45% | 
29 | COc1ccc(C(c2c(O)cc(C)n(Cc3ccco3)c2=O)N2CCCCC2)cc1OC (stereo unspecified) | inactive: 0.812% | 
30 | Cc1ccc(CNC(=O)CCn2nc(-c3ccc(Cl)cc3)ccc2=O)cc1 |  | inconclusive: 25.1 µM [activator, single point]
31 | COc1ccc(N2CCN(Cc3cc(=O)oc4ccc(C)cc34)CC2)cc1 |  | inconclusive: 39.8 µM [inhibitor, single point]
32 | CC1CCN(C(=O)CSc2nc(-c3ccccc3)no2)CC1 | inactive: 5.15% | 
33 | O=C(NCc1ccco1)c1ccc2c(c1)N(Cc1cccc(Cl)c1)C(=O)c1ccccc1S2(=O)=O |  | inconclusive: 39.8 µM [inhibitor, single point]
34 | Cc1nn(-c2ccccc2)c2nc(C3CC3)cc(C(=O)Nc3ccccc3F)c12 |  | inconclusive: 31.6 µM [inhibitor, single point]
35 | CN1C(=O)c2ccccc2Sc2ccc(NC(=O)COc3ccc(F)cc3)cc21 | inactive: -9.04% | 
36 | CC(C)Cn1c(N)c(C(=O)COC(=O)c2cc(-c3ccco3)nc3ccccc23)c(=O)n(C)c1=O |  | inconclusive: 39.8 µM [activator, single point]
37 | O=C(Cn1ccc2ccccc2c1=O)NCCC(=O)N1CCN(c2cccc(Cl)c2)CC1 |  | inconclusive: 31.6 µM [activator, single point]
38 | Oc1c(-c2cc(-c3ccco3)[nH]n2)ccc2ccccc12 |  | inconclusive: 31.6 µM [inhibitor, single point]
39 | COc1cccc(N/C(N)=N/c2nc(C(F)(F)F)cc(=O)[nH]2)c1 |  | inconclusive: 25.1 µM [inhibitor, single point]
40 | COc1ccc(-n2c(CC3C(=O)N(C)c4ccc(C)cc43)nc3ccccc3c2=O)cc1 (stereo unspecified) |  | inconclusive: 39.8 µM [activator, single point]
41 | COc1ccc(C(c2nnnn2C2CCCC2)N2CCc3ccccc3C2)cc1OC (stereo unspecified) |  | inconclusive: 31.6 µM [activator, single point]
42 | Cc1ccc(C)c(S(=O)(=O)N2CCN(C(C)C(=O)Nc3ccccc3-c3ccccc3)CC2)c1 (stereo unspecified) | inactive: -15% | 
43 | COc1ccc(S(=O)(=O)N2CCC(Oc3ccc(-n4cnnn4)cc3)CC2)cc1OC |  | inconclusive: 39.8 µM [activator, single point]
44 | CC1=NN(c2ccc(C)cc2C)C(=O)C1C(c1cccc(O)c1)C1C(=O)N(c2ccc(C)cc2C)N=C1C (stereo unspecified) |  | inconclusive: 39.8 µM [activator, single point]

Row | SMILES | max response, negative = inhibition | Potency
45 | Cc1nn(-c2ccccc2)c(C)c1/C=N/NC(=O)c1cc(C23CC4CC(CC(C4)C2)C3)[nH]n1 |  | inconclusive: 39.8 µM [inhibitor, single point]
46 | CC(C)(C)c1ccc(OCC(O)CN(CCO)CC(O)Cn2ccc3ccccc32)cc1 (stereo unspecified) |  | inconclusive: 31.6 µM [activator, single point]
47 | CCOC(=O)c1ccccc1OCc1cc(/C=N/n2cncn2)ccc1OC |  | inconclusive: 39.8 µM [activator, single point]
48 | COCCN1C(=O)c2[nH]nc(-c3ccccc3O)c2C1c1ccc(Cl)c(Cl)c1 (stereo unspecified) | inactive: -26.8% | 
49 | O=C(CCN1N=C(c2ccccc2)CCC1=O)NCCc1ccc(Cl)cc1 | inactive: 14.2% | 
50 | O=C(CSc1nc(C2CC2)nc2ccccc12)N1c2ccccc2Sc2ccc(C(F)(F)F)cc21 |  | active: 3.98 µM
51 | O=C(O)CCC[C@H](O)\C=C/C=C/C=C/[C@H](O)C/C=C\CCCCCO | inactive: -10% | 
52 | CCOC(=O)Cn1c(=N)n(CCOc2ccc3ccccc3c2)c2ccccc21 |  | inconclusive: 39.8 µM [inhibitor, single point]
53 | COc1cccc(CNC(=O)C23CN(Cc4ccccc4)CC2C(c2ccc([N+](=O)[O-])cc2)=NO3)c1 (stereo unspecified) |  | inconclusive: 39.8 µM [inhibitor, single point]
54 | CCOc1ccc(NC(=O)C(C)Oc2ccccc2C(=O)Nc2cccc(Cl)c2Cl)cc1 (stereo unspecified) |  | inconclusive: 39.8 µM [inhibitor, single point]
55 | CCCOc1ccc(C(=O)NC(=S)Nc2nc3ccccc3s2)cc1 |  | inconclusive: 31.6 µM [inhibitor, single point]
56 | C[C@]12CC[C@H](O)CC1=CC[C@H]1[C@@H]2CC[C@@]2(C)C(N(CCO)CCO)CC[C@@H]12 (stereo partly specified) | inactive: -4.33% | 
57 | CCCc1cc2c(cc1NS(=O)(=O)c1ccc(CCNC(C)=O)cc1)OCO2 | inactive: 13.1% | 
58 | Cc1cc(/C=C2/NC(=O)N(Cc3ccccc3F)C2=O)c(C)n1-c1ccccn1 |  | inconclusive: 31.6 µM [inhibitor, single point]
59 | O=C(OCc1ccc([N+](=O)[O-])cc1)c1ccc(N2CCCC2)c([N+](=O)[O-])c1 |  | inconclusive: 31.6 µM [inhibitor, single point]
60 | O=C(COC(=O)CCc1nc2ccccc2s1)Nc1cccc(S(=O)(=O)N2CCOCC2)c1 |  | inconclusive: 39.8 µM [activator, single point]
61 | CSc1ccc(Cl)c(C(=O)NCc2ccco2)c1 |  | active: 20 µM
62 | O=C(Nc1nc(-c2cccs2)cs1)c1ccc(S(=O)(=O)N2CCCCC2)cc1 |  | inconclusive: 39.8 µM [inhibitor, single point]
63 | O=C(CCN1C(=O)c2ccccc2C1=O)Nc1ccc(-c2cn3ccsc3n2)cc1 |  | inconclusive: 39.8 µM [inhibitor, single point]
64 | CCCCCOc1ccc(C(=O)N(Cc2ccco2)C2CCS(=O)(=O)C2)cc1 (stereo unspecified) |  | inconclusive: 39.8 µM [activator, single point]
65 | Cc1ccc2c(CC(=O)Nc3ccccc3C(F)(F)F)coc2c1C |  | inconclusive: 25.1 µM [inhibitor, single point]
66 | COc1ccc(N=C2C(=Nc3ccc(OC)cc3)N(c3ccc(OC)cc3)C(=S)N2C)cc1 |  | inconclusive: 39.8 µM [inhibitor, single point]
